# Measurements: patent US20040115790A1, “Method for production of secreted proteins in fungi” (priority 2001, published 2004)
# Tested on: T. reesei Rut-C30
# Experiment: Northern analysis of transcript levels in treated T. reesei cultures
# Settings: mRNA normalised with gpd; 5 μM A23187, 50 μg/ml BFA or 10 mM DTT
# Procedure: The Trichoderma strains and cultivation conditions have been essentially described elsewhere (Pakula et al. 2000; Ilmén et al 1996). T. reesei strain Rut-C30 (Montenecourt & Eveleigh, 1979) was cultivated on minimal medium ((H4)2SO4 7.6 g l^−1, KH2PO4 15.0 g l^−1, MgSO4.7H2O 0.5 g l^−1, CaCl2.H2O 0.2 g l^−1, CoCl2 3.7 mg l^−1, FeSO4.7H2O 5 mg l^−1, ZnSO4.7H2O 1.4 mg l^−1, MnSO4.7H2O 1.6 mg l^−1, pH adjusted to 5.2 with KOH) that contained lactose 20 g l^−1 as a carbon source. Spore suspension with 2×10^7 spores (stored in −80° C. in 20% glycerol) was inoculated into 200 ml of the medium, grown in shake flasks at 28° C. with shaking at 210 rpm. After 4 days of cultivation the cultures were diluted 1/10 into fresh medium, grown further for 24 h, and treated either with 10 mM dithiothreitol (DTT), 50 μg/ml brefeldin A (BFA) or 5 μM Ca^2+-ionophore A23187. A corresponding volume of the solvent of the stock solution was added into the untreated control cultures (0.2% and 0.5% DMSO for the control cultures for A23187 and BFA treatment, respectively, and double distilled water for the control for DTT treatment). The cultures were divided into aliquots for metabolic labelling of the proteins and for RNA isolation at different time points.
# For the Northern analysis mycelial samples were collected from cultures treated with DTT, BFA or A23187 and from the untreated control cultures after 0, 15, 30, 60, 90, 120, 240 and 360 minutes of the treatment. The first sample (the time point 0 min was withdrawn immediately before addition of DTT, BFA or A23187). The mycelium was filtered, washed with equal volume of 0.7% NaCl, frozen immediately in liquid nitrogen, and stored at −80° C. Total RNA was isolated using the Trizol™ Reagent (Gibco BRL) essentially according to manufacturer's instructions. Northern blotting and hybridisation was carried out according to standard procedures (Sambrook et al). Full-length cDNA of the genes were used as probes. […]
row,Structure (SMILES),Induction of pdi1 and bip1 genes (UPR)
1,"O[C@H](CS)[C@H](O)CS (racemic) [DTT, dithiothreitol]",induction of pdi1 and bip1 genes
2,CNc1ccc2oc(C[C@H]3O[C@@]4(CC[C@H]3C)O[C@H]([C@H](C)C(=O)c3ccc[nH]3)[C@H](C)C[C@H]4C)nc2c1C(=O)O [A23187],no induction
3,"C[C@H]1CCC/C=C/[C@@H]2C[C@H](O)C[C@H]2[C@H](O)/C=C/C(=O)O1 [BFA, brefeldin A]",induction of pdi1 and bip1 genes
